27 molecules from PubChem BioAssay AID493014 (National Center for Advancing Translational Sciences (NCATS), 2011) can be followed below.

Screen size: about 340,000 compounds; about 170 (0.05%) were called active. About 26% were inconclusive and are not listed. The call rests on the fitted dose curve; in most records, active means well fitted inhibition curve with a large enough effect in the signal ratio, with a control signal flat (not every such curve was filed as active); inconclusive means small, poorly fitted or top-dose-only effect, or effect the other way, or a change in a side signal; inactive means flat fitted curve, though single readings scatter; the % refers to the signal ratio. The entries are a selection whose mix differs from that of the whole data set.
Potency means the concentration at half of the fitted maximal effect.

This test is described as follows: qHTS Assay to Find Inhibitors of Chronic Active B-Cell Receptor Signaling.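 On activity change, negative = inhibition: plate controls were basal doxycycline-induced cells for no effect and cells given 10 µM MG132 for full effect.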 Particulars: ABC-DLBCL IkBa-CBG/CBR reporter, luminescence ratio (green luciferase fused to IkBa over red control in TMD8 lymphoma cells), 4 h; series mostly up to 46.1 µM; activity change, negative = inhibition: at the top concentration. In a few lines:
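TMD8 human ABC-DLBCL cells with doxycycline-inducible IκBα–green luciferase fusion and unfused red luciferase, in 0.5% FBS medium; compounds up to 46 uM, 4 h at 37C. Green/red luminescence ratio, filter-overlap corrected, fitted to concentration-response curves.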
Background: Quantitative high-throughput screening tests each substance at several concentrations.
Consider `O=C(CCCN1C(=O)/C(=C/c2cccs2)SC1=S)Nc1cccnc1`, for which the “activity change, negative = inhibition” value is inactive: -13.8%. `COC(=O)C1=C(C)N(Cc2ccccc2)C(=NCCN2CCOCC2)N[C@H]1CCc1ccccc1`: the “activity change, negative = inhibition” value was inactive: 9.5%. Turning to `CC1OC(OCC2OC(Oc3c(-c4ccc(O)cc4)oc4cc(O)cc(O)c4c3=O)C(O)C(O)C2O)C(O)C(O)C1O` (configuration not stated), the “activity change, negative = inhibition” value was inactive: -19.4%. Same read-out and setting: with `CCS(=O)(=O)NCC(c1ccco1)N1CCN(c2ccccc2)CC1` (configuration not stated) the figure was inactive: -9.63%; with `C=CC[C@@H](CC(=O)N(CCO)Cc1ccccc1)C(=O)N[C@@H](C)COC(=O)[C@@H](CC=C)Cc1ccc(F)cc1`, inactive: -4.6%.

For `Cc1ccc(CNC(=O)c2c(Nc3ccccc3C)sc(C(=O)c3ccc(F)cc3)c2N)cc1`, the Potency was active: 22.4 µM. Regarding `C#CCNC(=O)C1=C[C@@H](c2cn(C(C)=O)c3ccccc23)C[C@@H](OCc2ccc(CO)cc2)O1`, the “activity change, negative = inhibition” value is inactive: 11.8%. On the same count and under the same terms, the same measure for `O=C(O)/C=C\C(=O)NCc1ccccc1`: inactive: -5.63%. Consider `CC1=CC(C)(C)N(S(=O)(=O)c2ccc(C)cc2)c2ccccc21`, for which the Potency is active: 23.1 µM. `Fc1ccc(SCCc2ccccn2)cc1`: the “activity change, negative = inhibition” value was inactive: -3.64%. Regarding `COc1ccc(CCN2CC(C(=O)NCCc3ccccc3)CC2=O)cc1OC` (configuration not stated), the “activity change, negative = inhibition” value is inactive: 0.2%. For the molecule `O=C1NCCOC(=O)[C@@H](Cc2ccc(F)cc2)C/C=C\C[C@@H]1CC(=O)N(CCO)Cc1ccccc1`, the “activity change, negative = inhibition” value is inactive: -0.0053%.

Turning to `COCCCC/C(=N\OCCN)c1ccc(C(F)(F)F)cc1`, the Potency entry was “inactive”. Regarding `O=C(O)/C=C\C(=O)Nc1ccc(Oc2ccccc2)cc1`, the “activity change, negative = inhibition” value is inactive: 3.48%. On the same count and under the same terms, the same measure for `O=C1N[C@@H](Cc2ccccc2)COC(=O)[C@H](Cc2ccc(F)cc2)C/C=C\C[C@@H]1CC(=O)N(CCO)Cc1ccccc1`: inactive: 1.72%; for `CCO[C@H]1OC(C(=O)Nc2ccccc2)=C[C@@H](C2CC2)[C@@H]1CCCO`: inactive: 20%. On the same count and under the same terms, with `C=C(C)[C@H]1CC=C(C)/C(=N/NC(=O)CNc2ccccc2OC)C1` the figure was inactive: -0.619%; with `COC(C[C@@H]1O[C@H]1[C@@H](O)COCc1ccccc1)OC`, inactive: -2.38%; with `C#CCNC(=O)C1=C[C@@H](c2coc3ccccc3c2=O)C[C@@H](OCCCCO)O1`, inactive: 10.2%. On the same count and under the same terms, the same measure for `C/C=C(/C)C(=O)O[C@@H]1Cc2c(ccc3ccc(=O)oc23)OC1(C)C`: inactive: -3.74%.

Take `O=c1cc(-c2ccccc2)[nH]c2ccccc12`: the Potency was active: 11.2 µM. As to `C=CCc1cc(OC)ccc1OCC(O)CN1CCN(c2ccc(OC)cc2)CC1` (configuration not stated), the “activity change, negative = inhibition” value was inactive: -8.14%. Consider `O=C1CC[C@@H](C(=O)O)N1`, for which the “activity change, negative = inhibition” value was inactive: 0.189%. The same measure, in the same setting: with `COC(C[C@H]1O[C@H]1[C@@H](O)[C@H](C)OCc1ccccc1)OC` the figure was inactive: 3.81%.

As to `C[C@@H]1CC[C@@]2(O[C@H](CCO)C[C@H](O)[C@H]2O)O1`, the “activity change, negative = inhibition” value was inactive: 0.937%. As to `CCOC(=O)C1CCN(C(=O)c2ccc3c(=O)n4nc(Nc5cc(C)ccc5C)sc4nc3c2)CC1`, the “activity change, negative = inhibition” value is inactive: -13.3%. As to `COc1ccc(CNC(=O)CN2C(=O)CSc3ccc(S(=O)(=O)N4CCOCC4)cc32)c(OC)c1`, the “activity change, negative = inhibition” value is inactive: 7.92%.
